Experimental data published in patent US20120179089A1, “SUBSTITUTED BIPYRIDINES FOR USE IN ORGANIC LIGHT-EMITTING DEVICES” (Nitto Denko Corporation, priority 2010, published 2012).

System: actinic keratoses
Experiment: Phototherapy of actinic keratoses lesions with red light emitting OLED
Conditions: 20% topical solution; illuminated 14-18 hours after application, about 20 mW/cm^2 for about 8.3 minutes
Method: 5-Aminolevulinic acid HCl (20% topical solution, available as LEVULAN® KERASTICK® from DUSA® Pharmaceuticals) is topically applied to individual lesions on a person suffering from actinic keratoses. About 14-18 hours after application, the treated lesions are illuminated with a red light emitting OLED device constructed as set forth in Example 13 (Compound 8:Ir(piq)2acac emissive layer and no wavelength convertor layer) at an intensity of about 20 mW/cm^2 for about 8.3 minutes.
The treatment is repeated as needed.
Methyl aminolevulinate (16.8% topical cream, available as METVIXIA® Cream from GALERMA LABORATORIES, Fort Worth, Tex., USA) is topically applied to individual lesions on a person suffering from actinic keratoses. The excess cream is removed with saline, and the lesions are illuminated with the red light emitting OLED constructed as set forth in Example 13.
Nitrile gloves are worn at all times during the handling of methyl aminolevulinate. After the treatment, it is anticipated that the number or severity of the lesions is reduced. The treatment is repeated as needed.

SMILES: Cl.NCC(=O)CCC(=O)O [5-Aminolevulinic acid HCl]
- number or severity of the lesions: anticipated to be reduced
